The target in test [1] is T1, CD80:Fc loaded on anti-human capture sensor (ForteBio Octet AHC) (human, UniProt P33681 35-242).
T1 sequence: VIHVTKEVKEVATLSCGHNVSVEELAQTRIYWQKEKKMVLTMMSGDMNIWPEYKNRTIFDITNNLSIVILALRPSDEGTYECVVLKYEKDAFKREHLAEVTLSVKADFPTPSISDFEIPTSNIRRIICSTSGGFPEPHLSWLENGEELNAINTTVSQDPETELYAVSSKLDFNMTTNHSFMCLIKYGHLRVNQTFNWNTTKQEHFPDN
Briefly: ForteBio Octet, CD80:Fc on AHC sensor, 100 nM. (In general: BLI is a label-free optical method that tracks binding on a fibre tip over time.)

For test [2], the target named is T2, PD-1:Fc loaded on anti-human capture sensor (ForteBio Octet AHC) (human, UniProt Q15116 part only). Briefly: ForteBio Octet, PD-1:Fc on AHC sensor, 100 nM.
T2 sequence (Q15116 25-167): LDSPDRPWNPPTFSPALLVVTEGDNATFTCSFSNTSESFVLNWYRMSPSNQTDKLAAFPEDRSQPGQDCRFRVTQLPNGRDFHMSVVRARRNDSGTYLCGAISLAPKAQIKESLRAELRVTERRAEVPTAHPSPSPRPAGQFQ
Test [3] deals with T1, CD80:Fc loaded on anti-human capture …. Description: ForteBio Octet, CD80:Fc response vs WT PD-L1 IgV-Fc.
Test [4] has as its target T2, PD-1:Fc loaded on anti-human capture …. Description: ForteBio Octet, PD-1:Fc response vs WT PD-L1 IgV-Fc.
Test [5] shares this target. Description: ForteBio Octet, PD-1:Fc response over CD80:Fc response.

Positions count from the first letter of the chain named. In names and notes the source's numbering stands.

B1: variant PD-L1 IgV-Fc A33D/N45T/N78I (IgV SEQ ID NO 276) (Fc fusion)
chain: FTVTVPKDLYVVEYGSNMTIECKFPVEKQLDLDALIVYWEMEDKTIIQFVHGEEDLKVQHSSYRQRARLLKDQLSLGIAALQITDVKLQDAGVYRCMISYGGADYKRITVKVNAAAA[no letters for human IgG1 Fc with C220S R292C N297G V302C (EU numbers)]
In the case of B1, the “CD80:Fc Response” value in test [1] stood at 1.59. The “PD-1:Fc Response” value in test [2] is 2.34. The “Fold over WT PD-L1 IgV-Fc” value in test [3] came to 2 fold; in test [4], 1.7 fold. In addition, the “PD-1:CD80 ratio” value in test [5] stood at 1.5 ratio.

B2: variant PD-L1 IgV-Fc A33D/S75P (IgV SEQ ID NO 285) (Fc fusion)
chain: B1 chain with T45N, S75P, I78N, M97V
For B2, the “CD80:Fc Response” value in test [1] was 0.43. In addition, in test [2], the “PD-1:Fc Response” value worked out at 0.72. The “Fold over WT PD-L1 IgV-Fc” value in test [3] and in test [4] was 0.5 fold each time. In addition, in test [5], the “PD-1:CD80 ratio” value turned out to be 1.7 ratio.

B3: variant PD-L1 IgV-Fc I20L/F49S (IgV SEQ ID NO 256) (Fc fusion)
chain: B1 chain with I20L, D33A, T45N, F49S, I78N
As to B3, the “CD80:Fc Response” value in test [1] is 0.58. Also, in test [2], the “PD-1:Fc Response” value was 0.79. The “Fold over WT PD-L1 IgV-Fc” value amounted to 0.7 fold in test [3] and 0.6 fold in test [4]. Besides, the “PD-1:CD80 ratio” value in test [5] was found to be 1.4 ratio.

Source of the values: patent US20260062456A1 (ALPINE IMMUNE SCIENCES, published 2026).
